Measurements taken from the supplement of paper PMC8728848.
The other results are listed elsewhere or left out.

Columns and labels:
Assay in all cases: glycan array binding signal (z-score within array); higher = stronger binding
Details in all cases: glycan notation: IUPAC condensed, linker removed
[1] = target: Fuc(a1-3)[Gal(b1-4)]GlcNAc(b1-2)Man(a1-6)[Gal(b1-4)GlcNAc(b1-2)Man(a1-3)]Man(b1-4)GlcNAc(b1-4)GlcNAc
In short: (§1)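 Columns mapping to the same glycan were averaged after glycan names were converted to IUPAC-condensed notation. The data come from 3228 arrays in the Consortium for Functional Glycomics database, limited to those with an available protein sequence. Binding is reported as a within-array Z-score averaged across arrays of one protein sequence and across linkers.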

[2] = target: Fuc(a1-3)[Gal(b1-4)]GlcNAc(b1-3)Gal(b1-3)[Fuc(a1-4)]GlcNAc
In short: as §1

[3] = target: Fuc(a1-3)[Gal(b1-4)]GlcNAc(b1-3)GalNAc
In short: as §1

[4] = target: Fuc(a1-3)[Gal(b1-4)]GlcNAc(b1-4)Gal(b1-4)[Fuc(a1-3)]GlcNAc
In short: as §1

[5] = target: Fuc(a1-3)[Gal(b1-4)]GlcNAc(b1-4)Gal(b1-4)[Fuc(a1-3)]GlcNAc(b1-4)Gal(b1-4)[Fuc(a1-3)]GlcNAc
In short: as §1

[6] = target: Fuc(a1-3)[Gal(b1-4)]GlcNAc(b1-6)GalNAc
In short: as §1

[7] = target: Fuc(a1-3)[Gal(b1-4)]GlcNAc(b1-6)[Gal(b1-3)GlcNAc(b1-3)]Gal(b1-4)Glc
In short: as §1

[8] = target: Fuc(a1-3)[Gal(b1-4)]GlcNAc(b1-6)[Neu5Ac(a2-3)Gal(b1-3)]GalNAc
In short: as §1

[9] = target: Fuc(a1-3)[Gal(b1-4)]GlcNAc6S
In short: as §1

[10] = target: Fuc(a1-3)[Gal3S(b1-4)]Glc6S
In short: as §1

[11] = target: Fuc(a1-3)[Gal3S(b1-4)]GlcNAc
In short: as §1

[12] = target: Fuc(a1-3)[Gal3S(b1-4)]GlcNAc6S
In short: as §1

[13] = target: Fuc(a1-3)[GalNAc(b1-4)]GlcNAc
In short: as §1

[14] = target: Fuc(a1-3)[GalNAc(b1-4)]GlcNAc6S
In short: as §1

[15] = target: Fuc(a1-3)[GalNAc3S(b1-4)]GlcNAc
In short: as §1

[16] = target: Fuc(a1-3)[Neu5Ac(a2-3)]Gal(b1-4)GlcNAc(b1-3)GalNAc
In short: as §1

[17] = target: Fuc(a1-4)GlcNAc
In short: as §1

[18] = target: Fuc(b1-3)GlcNAc
In short: as §1

[19] = target: Gal(a1-2)Gal
In short: as §1

[20] = target: Gal(a1-3)Gal
In short: as §1

[21] = target: Gal(a1-3)Gal(b1-3)GlcNAc
In short: as §1

[22] = target: Gal(a1-3)Gal(b1-3)GlcNAc(b1-2)Man(a1-3)[Gal(a1-3)Gal(b1-3)GlcNAc(b1-2)Man(a1-6)]Man(b1-4)GlcNAc(b1-4)GlcNAc
In short: as §1

[23] = target: Gal(a1-3)Gal(b1-3)GlcNAc(b1-3)GalNAc
In short: as §1

[24] = target: Gal(a1-3)Gal(b1-3)GlcNAc(b1-6)GalNAc
In short: as §1

[25] = target: Gal(a1-3)Gal(b1-3)[Fuc(a1-4)]GlcNAc(b1-2)Man(a1-3)[Gal(a1-3)Gal(b1-3)[Fuc(a1-4)]GlcNAc(b1-2)Man(a1-6)]Man(b1-4)GlcNAc(b1-4)GlcNAc
In short: as §1

[26] = target: Gal(a1-3)Gal(b1-4)Glc
In short: as §1

[27] = target: Gal(a1-3)Gal(b1-4)GlcNAc
In short: as §1

[28] = target: Gal(a1-3)Gal(b1-4)GlcNAc(b1-3)GalNAc
In short: as §1

[29] = target: Gal(a1-3)Gal(b1-4)GlcNAc(b1-6)GalNAc
In short: as §1

[30] = target: Gal(a1-3)Gal(b1-4)[Fuc(a1-3)]GlcNAc
In short: as §1

[31] = target: Gal(a1-3)Gal(b1-4)[Fuc(a1-3)]GlcNAc(b1-2)Man(a1-3)[Gal(a1-3)Gal(b1-4)[Fuc(a1-3)]GlcNAc(b1-2)Man(a1-6)]Man(b1-4)GlcNAc(b1-4)GlcNAc
In short: as §1

[32] = target: Gal(a1-3)GalNAc
In short: as §1

[33] = target: Gal(a1-3)[Gal(a1-4)]Gal(b1-4)GlcNAc
In short: as §1

[34] = target: Gal(a1-4)Gal(b1-3)GlcNAc(b1-2)Man(a1-3)[Gal(a1-4)Gal(b1-3)GlcNAc(b1-2)Man(a1-6)]Man(b1-4)GlcNAc(b1-4)GlcNAc
In short: as §1

[35] = target: Gal(a1-4)Gal(b1-4)Glc
In short: as §1

[36] = target: Gal(a1-4)Gal(b1-4)GlcNAc
In short: as §1

[37] = target: Gal(a1-4)Gal(b1-4)GlcNAc(b1-2)Man(a1-3)[Gal(a1-4)Gal(b1-4)GlcNAc(b1-2)Man(a1-6)]Man(b1-4)GlcNAc(b1-4)GlcNAc
In short: as §1

[38] = target: Gal(a1-4)Gal(b1-4)GlcNAc(b1-3)Gal(b1-4)Glc
In short: as §1

[39] = target: Gal(a1-4)GlcNAc
In short: as §1

[40] = target: Gal(a1-6)Glc
In short: as §1

[41] = target: Gal(b1-2)Gal
In short: as §1

[42] = target: Gal(b1-3)Gal
In short: as §1

[43] = target: Gal(b1-3)Gal(b1-4)GlcNAc
In short: as §1

[44] = target: Gal(b1-3)Gal(b1-4)GlcNAc(b1-2)Man(a1-3)[Gal(b1-3)Gal(b1-4)GlcNAc(b1-2)Man(a1-6)]Man(b1-4)GlcNAc(b1-4)GlcNAc
In short: as §1

[45] = target: Gal(b1-3)GalNAc
In short: as §1

B1: Calsepa (Calystegia sepium), P93114 (protein)
chain: MAVPMDTISGPWGNNGGNFWSFRPVNKINQIVISYGGGGNNPIALTFSSTKADGSKDTITVGGGGPDSITGTEMVNIGTDEYLTGISGTFGIYLDNNVLRSITFTTNLKAHGPYGQKVGTPFSSANVVGNEIVGFLGRSGYYVDAIGTYNRHK
- glycan array binding signal (z-score) [1]: 0.752
- glycan array binding signal (z-score) [2]: -0.247
- glycan array binding signal (z-score) [3]: -0.27
- glycan array binding signal (z-score) [4]: -0.253
- glycan array binding signal (z-score) [5]: -0.25
- glycan array binding signal (z-score) [6]: -0.264
- glycan array binding signal (z-score) [7]: -0.272
- glycan array binding signal (z-score) [8]: -0.264
- glycan array binding signal (z-score) [9]: -0.247
- glycan array binding signal (z-score) [10]: -0.185
- glycan array binding signal (z-score) [11]: -0.213
- glycan array binding signal (z-score) [12]: -0.245
- glycan array binding signal (z-score) [13]: -0.236
- glycan array binding signal (z-score) [14]: -0.262
- glycan array binding signal (z-score) [15]: -0.265
- glycan array binding signal (z-score) [16]: -0.154
- glycan array binding signal (z-score) [17]: -0.244
- glycan array binding signal (z-score) [18]: -0.248
- glycan array binding signal (z-score) [19]: -0.242
- glycan array binding signal (z-score) [20]: -0.251
- glycan array binding signal (z-score) [21]: -0.249
- glycan array binding signal (z-score) [22]: -0.137
- glycan array binding signal (z-score) [23]: -0.272
- glycan array binding signal (z-score) [24]: -0.269
- glycan array binding signal (z-score) [25]: -0.189
- glycan array binding signal (z-score) [26]: -0.261
- glycan array binding signal (z-score) [27]: -0.244
- glycan array binding signal (z-score) [28]: -0.269
- glycan array binding signal (z-score) [29]: -0.267
- glycan array binding signal (z-score) [30]: -0.238
- glycan array binding signal (z-score) [31]: -0.165
- glycan array binding signal (z-score) [32]: -0.247
- glycan array binding signal (z-score) [33]: -0.25
- glycan array binding signal (z-score) [34]: 0.839
- glycan array binding signal (z-score) [35]: -0.252
- glycan array binding signal (z-score) [36]: -0.251
- glycan array binding signal (z-score) [37]: 3.47
- glycan array binding signal (z-score) [38]: -0.248
- glycan array binding signal (z-score) [39]: -0.247
- glycan array binding signal (z-score) [40]: -0.246
- glycan array binding signal (z-score) [41]: -0.252
- glycan array binding signal (z-score) [42]: -0.247
- glycan array binding signal (z-score) [43]: -0.247
- glycan array binding signal (z-score) [44]: 3.79
- glycan array binding signal (z-score) [45]: -0.246
